Assay results published in PubChem BioAssay AID488969 (Vanderbilt High Throughput Screening Facility, 2010).
Whole data set: some 110,000 compounds, median “z-score” near -0.1, cut for the highest 2% near 2. Some of the results follow. The source made the active and inactive calls.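 How the source made its calls: active means z-score in the third read window above 3 or below -3; inactive means the rest.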

What follows are molecules tested against Metabotropic glutamate receptor 8 (Rattus norvegicus) (UniProt P70579) (assay: mGluR8 Gi/Go-coupled signaling modulation – cell-based, rat, thallium flux, HTS, primary screen (AID 488969)). Settings: HEK293 rat mGluR8, GIRK (G protein-gated inwardly rectifying potassium channel) thallium flux, FluoZin2; at 10 µM; stronger effect = higher value; submaximal glutamate (EC20) added with thallium.
UniProt P70579, sequence (P70579 whole entry, looked up): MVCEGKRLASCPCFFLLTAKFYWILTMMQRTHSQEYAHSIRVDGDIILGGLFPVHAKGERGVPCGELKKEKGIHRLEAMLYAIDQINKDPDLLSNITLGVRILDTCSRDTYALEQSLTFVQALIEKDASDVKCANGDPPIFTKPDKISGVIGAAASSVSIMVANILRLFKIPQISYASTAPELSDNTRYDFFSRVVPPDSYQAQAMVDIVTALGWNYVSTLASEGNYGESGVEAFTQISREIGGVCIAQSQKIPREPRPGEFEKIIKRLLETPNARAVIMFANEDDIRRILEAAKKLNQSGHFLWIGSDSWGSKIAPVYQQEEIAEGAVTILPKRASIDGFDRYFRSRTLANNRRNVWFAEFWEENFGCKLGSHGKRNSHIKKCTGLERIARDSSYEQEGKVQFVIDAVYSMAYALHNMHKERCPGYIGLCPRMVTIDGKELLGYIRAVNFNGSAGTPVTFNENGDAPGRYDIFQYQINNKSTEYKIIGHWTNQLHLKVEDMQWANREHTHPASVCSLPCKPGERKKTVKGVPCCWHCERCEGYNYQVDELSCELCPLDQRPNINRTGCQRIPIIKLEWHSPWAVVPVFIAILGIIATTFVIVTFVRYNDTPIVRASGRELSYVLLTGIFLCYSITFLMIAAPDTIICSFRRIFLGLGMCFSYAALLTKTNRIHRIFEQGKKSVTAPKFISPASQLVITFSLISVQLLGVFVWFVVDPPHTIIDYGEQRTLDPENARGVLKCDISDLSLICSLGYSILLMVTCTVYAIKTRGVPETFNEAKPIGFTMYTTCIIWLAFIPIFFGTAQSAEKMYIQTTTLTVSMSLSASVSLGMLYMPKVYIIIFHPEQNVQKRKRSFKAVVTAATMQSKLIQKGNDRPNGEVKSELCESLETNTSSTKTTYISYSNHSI

Row | Compound | z-score
1 | CSc1nc2ccc(N3C(=O)C4CCCCC4C3=O)cc2s1 (centres undefined) | -0.207
2 | CC(C)C(=O)Nc1nnc(SCC(=O)N2c3ccccc3CC2C)s1 (centres undefined) | 1.43
3 | S=c1[nH]nc(-c2ccc(Cl)cc2Cl)n1Cc1ccccc1 | 1.5
4 | OCc1csc(=Nc2ccccc2)n1-c1ccccc1 | 0.398
5 | Cc1ccc(-n2nnc3c(=O)n(Cc4cccc(C)c4)cnc32)cc1 | -0.451
6 | CC(=O)Nc1ccc(S(=O)(=O)NCCc2csc(C)n2)cc1 | 0.339
7 | CCOC(=O)c1c(NC(=S)Nc2ccccc2)sc(C)c1C | 0.0775
8 | O=C(c1c(O)c2ccccc2oc1=O)C1CCCCC1 | -0.484
9 | COc1ccc(C(=O)N2c3ccccc3C(=O)OC2c2ccc3c(c2)OCO3)cc1 (centres undefined) | -0.678
10 | Cc1ccc(C2CC(c3cccc(C)c3)n3ncnc3N2)cc1 (centres undefined) | -0.668
11 | CC1=NN(c2ccc(Br)cc2)C(=O)/C1=C/c1cccs1 | 0.0317
12 | CCNC(=O)CN(c1ccccc1)S(=O)(=O)c1ccc(Cl)cc1 | 0.107
13 | COc1cc(C(=O)N/N=C\c2ccccc2)c([N+](=O)[O-])c(OC)c1OC | -0.0608
14 | Cc1cc(-c2ccco2)n(CC(=O)NCCN(C)C)n1 | -0.444
15 | CC1CC(=S)Nc2ccccc2S1 (centres undefined) | 1.11
16 | CN1OC(CC(=O)O)N(c2ccc(Cl)cc2)C1=O (centres undefined) | -1.27
17 | NC(=O)CSc1nnc(-c2cccc(S(=O)(=O)N3CCOCC3)c2)n1C1CCCCCC1 | -0.297
18 | CC1=CC(C)(C)N(S(=O)(=O)c2ccc(C)cc2)c2cc(C)ccc21 | -0.433
19 | CC(C)(C)C(=O)Nc1cc2nn(-c3ccccc3)nc2cc1Cl | 0.108
20 | COC(=O)CCSc1cc([N+](=O)[O-])cc2c1c(C1OCCS1)nn2-c1ccccc1 (centres undefined) | -0.51
21 | CN(C(=O)c1ccc2c(c1)SC1=NS(=O)(=O)CCN12)C(c1ccccc1)c1ccccc1 | -0.352
22 | Cc1ccccc1NC(=O)CSc1nc(COc2ccccc2)nc2ccccc12 | 0.264
23 | Cc1nn(-c2ccccc2)c(N2CCCC2)c1/C=N/NC(=O)c1cccc(S(=O)(=O)Nc2ccc(Cl)cc2)c1 | 1.17
24 | N#Cc1c(C(F)(F)F)cc(-c2ccccc2)[nH]c1=O | -0.331
25 | COc1ccc(C(C)(C)C)cc1NC(=S)NCCN1CCOCC1 | -0.293
26 | COc1ccccc1-c1nnc(SCC(=O)Nc2cc(C)on2)o1 | -0.79
27 | O=C(CN(c1ccccc1)S(=O)(=O)c1ccc(F)cc1)N1CCCCCC1 | -0.00333

Row | Compound | z-score
28 | CCc1nnc(NC(=O)C2Cc3ccccc3CN2S(=O)(=O)c2cccs2)s1 (centres undefined) | 0.0546
29 | CC(c1ccccc1)n1c(SCC(=O)N2CC(=O)Nc3ccccc32)nc2ccccc2c1=O (centres undefined) | active: 4.74
30 | Cc1nc(-c2c(-c3ccc(O)cc3O)noc2C(F)(F)F)cs1 | -0.215
31 | Cc1ccc(S(=O)(=O)NCC(=O)N(CC(=O)NC2CCCC2)c2ccc3c(c2)OCCO3)cc1 | -0.641
32 | CS(=O)(=O)N1CCC(C(=O)Nc2cc(C(F)(F)F)ccc2Cl)CC1 | 0.422
33 | Cc1ccc(NC(=O)COC(=O)CNC(=O)c2cccc([N+](=O)[O-])c2)cc1S(=O)(=O)N1CCCCCC1 | 0.745
34 | CS(=O)(=O)NCc1ccc(C(=O)NCc2ccccc2)cc1 | -0.187
35 | CCOc1ccc(-c2nnc(N)o2)cc1 | 0.278
36 | COc1ccc(-c2nc(C#N)c(NCc3ccc(C)cc3)o2)cc1OC | -0.0882
37 | CCOC(=O)CNS(=O)(=O)c1cc(-c2n[nH]c(=O)c3ccccc23)ccc1C | -1.16
38 | Oc1ccc(/C=N/NC(=S)NCC2CCCO2)cc1 (centres undefined) | -0.149
39 | CCOC(=O)c1cnc2ccc(C(=O)OC)cc2c1NCCc1ccc(OC)c(OC)c1 | 0.0244
40 | CC1(C)NC(=O)N(CC(O)COc2ccccc2-c2ccccc2)C1=O (centres undefined) | -0.0843
41 | Cc1ccc(S(=O)(=O)Nc2ccnc3ccccc23)cc1 | -0.429
42 | O=C(Nc1ccc(-c2nc3ccccc3o2)cc1)c1ccc2c(c1)OCO2 | 0.00429
43 | COc1ccc(OCCCC(=O)Nc2cccnc2)cc1 | 0.364
44 | Cc1ccc2c(c1)NC(=O)C(N1CCOCC1)(C(F)(F)F)O2 (centres undefined) | 1.63
45 | CS(=O)(=O)N(CC(=O)Nc1ccccc1C(=O)NCCc1ccccc1)c1ccc2c(c1)OCCO2 | -0.493
46 | Cc1ccc2c(c1)-c1c(ssc1=S)C(C)(C)N2C(=O)CN1C(=O)c2ccccc2C1=O | -0.494
47 | COc1ccc(Cl)cc1NC(=O)Cc1c(F)cccc1Cl | -0.155
48 | Cc1ccc(C=Nc2ccccc2C(=O)Nc2ccccc2)cc1 | -0.556
49 | O=C1CNC(=O)N1CC(=O)N1CCCc2ccccc21 | 0.0719
50 | CCCCn1nc2cc(C(=O)N[C@H](C)C3CCCCC3)ccc2c1OCC | -0.455
51 | CCN(CC)CCNC(=O)C1CCC(=O)N(c2ccc(OC)cc2)C1c1ccc(F)cc1 (centres undefined) | 0.555
52 | CC(C)Oc1ccc(/C=C(\NC(=O)/C=C/c2ccco2)C(=O)NCCc2nc3ccccc3[nH]2)cc1 | -0.676
53 | O=c1ccc(/C=C/c2ccccc2)nn1Cc1ccc(Cl)cc1Cl | 0.353
54 | Cc1ccc(CC(=O)NCC(C)C)cc1 | -0.0604
